In PubChem BioAssay AID463173 (ICCB-Longwood Screening Facility, Harvard Medical School, 2010):
The whole screen tested about 52,000 compounds, of which about 1,700 (3.3%) were called active. No stated cut-off is given here; in the data, active means survival mostly below about 52% (no sharp cut-off); inactive means mostly above about 56%. The list shows a part of the results.

system: Wild type; experiment: S. aureus survival, RN4220 and DeltatarO strains – OD600, teichoic acid synthesis inhibitors, primary screen (AID 463173); settings: S. aureus RN4220 wild type/DeltatarO growth, OD600, 18 h, active compounds read low, screened at 18.75 µg/mL (by protocol)

Row | Structure (SMILES) | survival
1 | COc1cc(OC)c(NC(=O)c2cn(C)c(=O)c3cc(OC)c(OC)cc23)cc1Cl | inactive: 61%
2 | O=C(/C=C/c1ccccc1)N1CCN(Cc2cc(=O)n3nc(-c4ccccc4Cl)sc3n2)CC1 | inactive: 73%
3 | O=C(CN1C(=O)C2(SCC(=O)N2c2ccc(Cl)cc2)c2ccccc21)NCCc1ccccc1 (centres undefined) | inactive: 74%
4 | COc1ccc(Cl)cc1NS(=O)(=O)c1c(C)[nH]c(=O)[nH]c1=O | inactive: 83%
5 | CCOc1ccccc1NC(=O)c1c(NC(=O)c2ccncc2)sc2c1CCC(C(C)(C)C)C2 (centres undefined) | inactive: 131%
6 | Cc1ccc(O)c(NC(=O)CCSc2nc(-c3ccco3)cc(C(F)(F)F)n2)c1 | inactive: 48%
7 | CN(C)c1ccc(NC(=O)CSC2=Nc3ccccc3C3=NC(CC(=O)NCc4ccc5c(c4)OCO5)C(=O)N23)cc1 (centres undefined) | inactive: 124%
8 | Cc1ccc(S(=O)(=O)Nc2c(C)nc3nc(C)[nH]n3c2=O)c(C)c1 | inactive: 127%
9 | Oc1ccc(NCc2ccccc2OCc2ccccc2Cl)cc1 | inactive: 82%
10 | COc1ccc(Cl)cc1NC(=O)c1c(NCc2cccs2)sc2c1CCCC2 | inactive: 83%
11 | Cc1cccc(-n2ncc(C(=O)Nc3ccc4c(c3)OCO4)c2C2CCN(C(=O)OC(C)(C)C)CC2)c1 | inactive: 89%
12 | Cc1ccc(NC(=O)Cn2cnc3c(oc4ccccc43)c2=O)cc1 | inactive: 90%
13 | CC(C)C1N(c2ccccc2)CCN1c1ccccc1 | inactive: 110%
14 | Cc1ccc(C(=O)c2oc3ccccc3c2NC(=O)COc2ccc(C(C)(C)C)cc2)cc1 | inactive: 78%
15 | Cc1ccc(COc2cccc3cc(-c4noc(-c5ccc(C)cc5)n4)c(=O)oc23)cc1 | inactive: 91%
16 | COC(=O)c1ccc(NC(=O)CSc2nc3c(c(=O)n(C)c(=O)n3C)n2Cc2ccccc2)cc1 | inactive: 79%
17 | COc1ccc(C(=O)NCc2nnc(SCC(=O)Nc3ccc(F)cc3)n2-c2ccccc2)cc1 | inactive: 136%
18 | Cc1cc(Nc2ccc(Cl)cc2)n2cnnc2n1 | inactive: 83%
19 | CC(=O)N1CCc2cc(S(=O)(=O)CCC(=O)N3CCN(c4ccccc4F)CC3)ccc21 | inactive: 117%
20 | Cc1ccccc1-c1noc(-c2cc(C(C)C)[nH]n2)n1 | inactive: 92%
21 | Cc1ccc2[nH]c(=O)c(CN(CC3COCCO3)C(=O)Nc3ccccc3F)cc2c1 (centres undefined) | inactive: 102%
22 | COc1ccccc1Cc1nc2ccccc2nc1SCC(=O)N1CCCc2ccccc21 | inactive: 82%
23 | CCOc1ccccc1N1CC(c2nc3ccccc3n2CCOc2ccccc2OC)CC1=O (centres undefined) | inactive: 107%

Row | Structure (SMILES) | survival
24 | COc1ccc(-c2nnc(SCC(=O)c3ccc([N+](=O)[O-])cc3)o2)cc1OC | inactive: 79%
25 | N#C/C(=C\c1ccc(-c2ccc(Cl)c(C(=O)O)c2)o1)c1nc2ccccc2[nH]1 | inactive: 68%
26 | Cc1ccc(-n2c(SCc3ccccc3C)nc3[nH]ncc3c2=O)cc1C | inactive: 85%
27 | O=C(NCc1ccccc1Cl)C(=O)NCC(c1cccs1)S(=O)(=O)c1ccccc1 (centres undefined) | inactive: 135%
28 | Cc1cccn2c(=O)c3cc(C(=O)NC(C)c4ccccc4)c(=N)n(CCOCCO)c3nc12 (centres undefined) | inactive: 75%
29 | COc1ccc2c(c1)Cc1sc(NC(=O)c3ccc(Cl)cc3)nc1-2 | inactive: 82%
30 | CC(=O)N1CCCc2ccc(NC(=O)c3ccc(C(F)(F)F)cc3)cc21 | inactive: 136%
31 | Cc1ccccc1-c1noc(-c2ccc(N3CCCC3)c([N+](=O)[O-])c2)n1 | inactive: 85%
32 | CC(C)c1ccc(-c2noc(SCC(=O)N(C)c3ccc(F)cc3)n2)cc1 | inactive: 127%
33 | CCOC(=O)c1cc(OC(=O)c2cccc(F)c2)n(-c2ccccc2)n1 | inactive: 79%
34 | O=C(O)CNC(=O)c1nc2ncccn2n1 | inactive: 105%
35 | O=C(NCc1cccnc1)C1CCN(Cc2cc3ccccc3n2Cc2ccccc2)CC1 | inactive: 131%
36 | O=C(NN=C1CCCCC1)c1cccc(N2CCCC2=O)c1 | inactive: 93%
37 | CCOc1ccc(N(C(=O)c2ccc(OC)cc2)S(=O)(=O)c2ccc3c(c2)n(C)c(=O)n3C)cc1 | inactive: 78%
38 | CCC(=O)C1=C(c2ccc(F)cc2)N(C(=O)CC)n2c(nnc2C2CCCCC2)S1 | inactive: 78%
39 | CCC(=O)OC1=CN(Cc2ccccc2)S(=O)(=O)c2ccccc21 | inactive: 78%
40 | CC(C)c1ccc(NC(=O)CN2C=NS(=O)(=O)c3ccccc32)cc1 | inactive: 90%
41 | O=C(CCc1ccccc1)Nc1nnc(CCN2CCCCC2)s1 | inactive: 97%
42 | COC(=O)c1cc2oc(C)cc2n1Cc1ccc(C)cc1 | inactive: 68%
43 | Cc1cc(C)cc(NC(=O)CSc2nnc(CNC(=O)c3c(F)cccc3Cl)o2)c1 | inactive: 122%
44 | CCN(CC)S(=O)(=O)c1ccc2c(c1)N(CC(=O)Nc1c(C)cc(C)cc1C)C(=O)CS2 | inactive: 80%
45 | CCOC(=O)CCn1ccc(=O)[nH]c1=O | inactive: 117%
46 | N#C/C(=C\c1c(Oc2ccc(F)cc2)nc2ccccn2c1=O)c1nc2ccccc2s1 | inactive: 73%

Row | Structure (SMILES) | survival
47 | Cc1cccc(N2CCN(C(=O)CN3C(=O)COc4ccc(S(=O)(=O)N5CCCC5)cc43)CC2)c1C | inactive: 81%
48 | CCOc1ccc(CCNC(=O)Cn2nc(CC)n3c(cc4c(OC)cccc43)c2=O)cc1OCC | inactive: 134%
49 | COc1cc2cc(C)c(SCC(=O)N3CCN(C(=O)c4ccco4)CC3)nc2cc1OC | inactive: 106%
50 | CCc1ccc(CNC(=O)C2CCN(C(=O)c3ccc(-n4ccc5ccccc54)s3)CC2)cc1 | inactive: 67%
51 | CCCOc1ccc(C(=O)Nc2sc3c(c2C(=O)OCC)CCCCC3)cc1 | inactive: 27%
52 | O=C1CC(c2ccc(F)cc2)c2c(n3c(nc4ccccc43)[nH]c2=O)N1 (centres undefined) | inactive: 83%
53 | CC(C)N(C(C)C)S(=O)(=O)c1ccccc1 | inactive: 112%
54 | Cc1oc(-c2cccc(Br)c2)nc1CSc1nc2ncccc2[nH]1 | inactive: 77%
55 | Cc1ccccc1CS(=O)(=O)c1ncc(Cl)c(C(=O)Nc2nnc(C(C)C)s2)n1 | inactive: 47%
56 | COc1ccc(N2CCN(C(=O)c3cn(C)c4ccc(S(=O)(=O)N(C)C5CCCCC5)cc4c3=O)CC2)cc1 | inactive: 85%
57 | COc1cc2ccccc2cc1C(=O)Nc1cccc(-c2nc3ccccc3o2)c1 | active: 1%
58 | Cc1ccccc1NC(=O)CCOc1ccccc1 | inactive: 74%
59 | Cc1ccc(NC(=O)c2c(C(=O)Nc3ccccc3)sc3nc(C)cc(=O)n23)cc1 | inactive: 87%
60 | COc1ccc(CNC(=O)C2CCN(S(=O)(=O)c3c(C)noc3/C=C/c3cccs3)CC2)cc1 | inactive: 93%
61 | CC(C(=O)NCc1cccc(Br)c1)n1ncn2cccc2c1=O (centres undefined) | inactive: 86%
62 | Cc1ccc(NC(=O)c2cc(CN3CCOCC3)on2)cc1Cl | inactive: 131%
63 | Cc1ccccc1S(=O)(=O)Cc1ccc(C(=O)NCc2ccccc2Cl)o1 | inactive: 69%
64 | Nc1nn(-c2ccccc2)nc1C(=O)OCc1ccccc1Br | active: -2%
65 | Cn1cc(-c2cc3n(n2)CCC(=O)N3CCCC(=O)Nc2ccccc2Cl)c2ccccc21 | active: -6%
66 | COc1cc(-c2nc3ccc(Cl)cn3c2Nc2ccc3c(c2)OCO3)ccc1O | inactive: 61%
67 | CC1=C(C(=O)Nc2ccc(C)cc2Cl)C2(CCCCC2)OC1=O | inactive: 104%
68 | COc1ccc2c(c1)CCc1c(C(=O)Nc3c(C)nn(Cc4c(Cl)cccc4Cl)c3C)noc1-2 | inactive: 106%
69 | O=C(c1cccs1)c1cn(CCOc2ccc(F)cc2)c2ccccc12 | inactive: 82%

Row | Structure (SMILES) | survival
70 | CCOC(=O)c1c(C)[nH]c(C)c1S(=O)(=O)NCC(=O)Nc1ccc(CC)cc1 | inactive: 80%
71 | CCc1ccccc1NC(=O)c1cc2sc(Cl)cc2n1CC | inactive: 90%
72 | Cc1cccc(NC(=O)CC2S/C(=N/c3nccs3)N(C)C2=O)c1 (centres undefined) | inactive: 114%
73 | CC(Sc1nc(-c2ccccc2)cc(C(F)(F)F)n1)C(=O)NN1CCCCC1 (centres undefined) | inactive: 117%
74 | O=C(Cn1cnc2onc(-c3ccc(F)cc3)c2c1=O)N1CCN(c2ccccc2F)CC1 | inactive: 71%
75 | CCOC(=O)c1noc2ncn(CC(=O)Nc3cc(Cl)ccc3OC)c(=O)c12 | inactive: 76%
76 | O=C(O)Cc1sc(Nc2ccc(C(=O)O)cc2)nc1-c1ccccc1 | inactive: 70%
77 | CCOc1ccccc1CNC(=O)CCCN1C(=O)COc2ccc(C)cc21 | inactive: 112%
78 | COc1ccc(-c2cn(-c3ccc(C)cc3)c(S(=O)(=O)CC(=O)Nc3ccccc3)n2)cc1 | inactive: 132%
79 | CC(C)c1ccccc1NC(=O)CSc1nnc(COc2ccccc2)o1 | inactive: 91%
80 | Cc1ccc(CNC(=O)CN(C)S(=O)(=O)c2ccc(Br)s2)cc1 | inactive: 135%
81 | Cc1oc2ncn(CC(C)C)c(=O)c2c1C(=O)Nc1cccc(C(F)(F)F)c1 | active: -3%
82 | O=C(Nc1ccc(Cl)c(Cl)c1)c1cc(S(=O)(=O)N2CCN(c3cccc(Cl)c3)CC2)ccc1F | inactive: 74%
83 | Cc1cc(Br)ccc1NC(=O)c1coc(=O)c2ccccc12 | inactive: 106%
84 | COc1ccc(-c2nnc(SCC(=O)Nc3ccccc3C)o2)cc1OC | inactive: 85%
85 | COc1ccccc1CC(=O)NC1CC(C)(C)NC(C)(C)C1 | inactive: 115%
86 | O=S1(=O)CCC(N2C(=S)SC3CS(=O)(=O)CC32)C1 (centres undefined) | inactive: 107%
87 | COc1ccc(N(C(=O)c2ccco2)C(C(=O)NC2CCCC2)c2cc(OC)c(OC)c(OC)c2)cc1 (centres undefined) | inactive: 110%
88 | O=C(NCCCCc1ccccc1)c1nn(-c2ccccc2F)nc1CO | inactive: 87%
89 | CC(C)OCCCn1c(SCC(N)=O)nc2c(sc3ccccc32)c1=O | inactive: 76%
